Drawing on ChEMBL document CHEMBL1157539, “Thousands of chemical starting points for antimalarial lead identification” (Nature, 2010), this text covers IFI for 90 compounds.

The full ranking holds about 13,000 compounds; the median of “IFI” is about 4, and the highest 2% start at about 17. The list shows a part of the results.

The nature of the experiment: GSK_TCMDC: Inhibition Frequency Index (IFI). The number of non-kinase HTS assays where a compound showed > 50 % inhibition, expressed as a percentage of the number of such assays in which the compound was tested (-0 is zero). In kind it is functional.
On to `O=C(NCc1cccc(C(F)(F)F)c1)c1ccc(CNC(=O)c2ccc(O)c(-c3ccc(Cl)c(Cl)c3)c2)cc1`, for which the IFI turned out to be 2.94%. `CCN1CCc2c1cc(C(=O)N[C@@H](Cc1ccccc1)[C@H](O)CNC(C)(C)c1cccc(C(F)(F)F)c1)cc2N1CCCCS1(=O)=O`: the IFI is 4.48%. Under `Fc1ccc2[nH]c(-c3cccc(-c4ccc(CNCc5ccccc5)cc4)c3)nc2c1` stands 8.57%; under `Cc1c(-c2ccccc2)ccc2[nH]cc(CC#N)c12`, 2.11%.

Compound `O=C(NCc1cccs1)[C@H](Cc1ccccc1)Nc1ccnc(NCCc2ccccc2)n1` had an IFI of 6.82%.

In turn, `Cc1ccc(S(=O)(=O)n2cc(-c3ccnc(N)c3)c3cc(Br)cnc32)cc1` registered an IFI of 5.26%.

Regarding `O=C(Nc1ccc(C(=O)Nc2cccc(C3=NCCN3)c2)cc1)Nc1ccc(C2=NCCN2)cc1`, the IFI is 3.57%. `CN(C(=O)/C=C/c1cc(C(F)(F)F)ccc1F)C1CCN(CCCCCNC(=O)/C=C/c2ccc(Cl)c(Cl)c2)C1` (stereo not given) gave an IFI of 2.14%.

Regarding `CC(=O)c1cccc(NC(=O)NC2CCN(CCCCCNC(=O)/C=C/c3ccc(Cl)c(Cl)c3)CC2)c1`, the IFI is 2.01%. As to `O=S(=O)(Nc1cccc(CCN2CCC(N3CCCCC3)CC2)c1)c1cccc2cccnc12`, the IFI turned out to be 0%.

Compound `c1ccc2oc(-c3cc4ccncc4cc3OC3CCNCC3)cc2c1` returned an IFI of 8.77%. Under `CN(C)Cc1ccc(-c2cc3ncnc(Nc4ccc(OCc5cccc(F)c5)c(Cl)c4)c3s2)[nH]1` stands 9.29%; under `Cc1cccc(C(=O)Nc2ccnc(N3CCC(N(C)Cc4cccc(C#N)c4)CC3)c2)c1`, -0%. The same measure for `Cc1ccc(/C=C2/SC(=Nc3ccccc3)NC2=O)c(C)c1`: 1.72%; for `O=C(N[C@@H](Cc1ccccc1)C(=O)NC1CCCc2ccccc21)c1ccc(O)c(-c2cccc(C(F)(F)F)c2)c1` (stereo not given in full): 0.73%. `CC1CN(c2ccc(NC(=O)c3ccsc3)cc2C(=O)N2CCN(Cc3ccc(C(C)(C)C)cc3)CC2)CC(C)O1` (stereo not given) came in with an IFI of 1.48%.

Regarding `COc1nc(-n2ccc(=N)cc2)nc2ccccc12`, the IFI came to 1.63%. The same measure for `Cc1c(N=O)cc(C(C)(C)C)c(O)c1C(=O)Nc1ccc([N+](=O)[O-])cc1Cl`: 25.2%; for `Cc1cnc(CNCc2ccc(S(=O)(=O)Nc3ccc(Oc4cccc(Cl)c4)cc3)cc2)cn1`: 7.77%; for `N=C(N)Nc1nc(-c2ccc(NCc3ccc(CNc4cccc(-c5csc(NC(=N)N)n5)c4)cc3)cc2)cs1`: 13.6%. In turn, `Cc1ccc(-c2cc(C(=O)Nc3ccc(S(=O)(=O)N4CC(C)OC(C)C4)cc3)[nH]n2)c(O)c1` (stereo not given) gave an IFI of 1.47%. On to `C=CCN(c1nc(NC)nc(NCc2c(OC)cccc2OC)n1)C1CCCC1`, for which the IFI was 11.5%. Under `Cc1ccccc1C1CCN(C2CCC(NC(=O)c3ccc(-c4cc(C(F)(F)F)nn4C)s3)CC2)CC1` (stereo not given) stands 14%. Under `O=C(/C=C/c1ccc(Cl)c(Cl)c1)NCCCCCN1CCCC(C(=O)Nc2ccc(Cl)c(Cl)c2)C1` (stereo not given) stands 14%; under `COC(=O)C1=C(C)NC2=C(C(=O)CC(c3ccc(OC)c(OC)c3)C2)C1c1cccc(O)c1` (stereo not given), -0%. Under `O=C(Nc1cccc(-c2cccc(-c3nc4ccccc4[nH]3)c2)c1)Nc1ccc(F)c(F)c1F` stands 8.74%. On to `CC(=O)Nc1ncc(C(=O)Nc2ccc(-c3cccc(-c4nc5cc(F)ccc5[nH]4)c3)cc2)s1`, for which the IFI came to 4.67%. The compound `Nc1nc(N)c2c(ccn2Cc2cc3c(cc2Cl)OCO3)n1` gave an IFI of 2.88%. Under `CSc1ccc(CN2CCC(NC(=O)c3ccc(-c4ccc(N(C)C)cc4)s3)CC2)cc1` stands 8.77%; under `Cc1cc(NC(=O)c2cccs2)ccc1OC1CCN(Cc2ccc(F)cc2)CC1`, 3.23%; under `CCCCOc1ccc(C(O)C(CN2CCCCC2)c2ccccc2)cc1` (stereo not given), 0.74%. Under `CCCCN(CCCC)CCCCCCNc1c2ccccc2nc2ccccc12` stands 2.9%.

With `FC(F)(F)c1ccc2[nH]c(-c3cccc(-c4cccc(CN5CCN(c6ccncc6)CC5)c4)c3)nc2c1`, the IFI turned out to be 11.5%. The same measure for `Cc1nnsc1C(=O)Nc1cccc(-c2csc(-c3nc4ccccc4[nH]3)c2)c1`: 7.34%; for `Nc1nc(N)c2c(Oc3cc(Cl)c(Cl)c(Cl)c3)cccc2n1`: 3.08%; for `CCC[C@@H]([C@@H](CC1CCCCC1)C(=O)N[C@H](C(=O)Nc1nccs1)C(C)(C)SCCOCCOCC)N(O)C=O`: 5.07%.

The compound `O=C(c1cc(C(=O)Nc2ccccc2F)c(=O)n(-c2ccccc2F)c1)c1cc(Cl)ccc1O` showed an IFI of 2.07%. Regarding `COc1ccc(COc2cc(NCCCN)nc3ccccc23)cc1`, the IFI worked out at 0%. `COc1cc(C(=O)N2CCOC(CCN3CCC[C@H]3C(=O)Nc3ccccc3)(c3ccc(Cl)c(Cl)c3)C2)cc(OC)c1OC` (stereo not given in full): the IFI came out at 4.83%. Under `O=C1CN(C(=O)CCC2CCCC2)C(c2ccc(F)cc2)c2cc(F)ccc2N1` (stereo not given) stands 2.61%; under `CCNc1cc(C)nc(Nc2ccc(NC(=O)C3CCCC3)cc2)n1`, 7.69%. In turn, `COc1ccc(-c2cccc(NC(=O)c3cccc(C#N)c3)c2)cc1CN(C)CCO` showed an IFI of 3%. In turn, `O=C(NCCN1CCCC1)N1CCCN(c2ncnc3cc(-c4ccc(F)cc4)sc23)CC1` gave an IFI of 0%. Turning to `Cc1cc(OCCCN2CCCCC2)ccc1NC(=O)COc1ccc(Cl)cc1C(=O)c1cc(C#N)cc(C(F)(F)F)c1`, the IFI was found to be 7.2%. `O=C(NCc1cccc2ccccc12)C1CCCN(C(=O)c2ccc(O)c(-c3ccc(Cl)c(Cl)c3)c2)C1` (stereo not given) registered an IFI of -0%. `COc1ccc2nccc(N3CCCN(CCNS(=O)(=O)c4ccc5c(c4)NC(=O)CS5)CC3)c2n1` had an IFI of 0.7%.

On to `O=C(NCc1cccc(F)c1)Nc1cccc(-c2cccc(-c3nc4ccccc4[nH]3)c2)c1`, for which the IFI was 1.01%. Under `CCOc1c(CCNCCCCNCCc2ccc3ccccc3c2OCC)ccc2ccccc12` stands 18.4%. The same measure for `CC(=O)Oc1c(C(=O)C2CCC(C(C)(C)C)CC2)c(OC(C)=O)c2ccccc2c1OC(C)=O` (stereo not given): 4.88%; for `Cc1nc(-c2cccc(Nc3nccc(NCC(O)c4cccc(F)c4)n3)c2)cs1` (stereo not given): 15.9%. The same measure for `O=C(Nc1nccs1)c1sc2ccccc2c1O`: 5.65%; for `O=C(NC1CCCc2ccccc21)[C@@H]1CCCN1C(=O)c1ccc(O)c(-c2ccc(Cl)c(Cl)c2)c1` (stereo not given in full): 0%. Regarding `CN(CCN)Cc1cccc(-c2ccc(-c3nc4cc(C(F)(F)F)ccc4[nH]3)s2)c1`, the IFI is 9%. In turn, `CCC1CN2CCc3c([nH]c4ccccc34)C2CC1CC1=NCCc2c1[nH]c1ccc(OC)cc21` (stereo not given) yielded an IFI of 7.63%. As for `CC(NC(=O)c1ccc(O)c(-c2ccc(Cl)c(Cl)c2)c1)C(=O)NCCN1CCCC1` (stereo not given), the IFI was 3.7%. In the case of `Fc1ccc2[nH]c(-c3ccc(-c4cccc(CN5CCN(CCN6CCOCC6)CC5)c4)cc3)nc2c1`, the IFI is 4.23%. The same measure for `COc1ccc2[nH]ccc(=NN=Cc3ccccc3)c2c1`: 2.21%. The same measure for `CCCCCCCNCc1c(O)ccc2c(CNCCCCCCC)c(O)ccc12`: 13.6%; for `C=CCN1CCC(N(Cc2cccc(Oc3ccccc3)c2)C(=O)C(c2ccccc2)c2ccccc2)CC1`: 2.13%; for `CNC(=O)c1ccccc1Nc1nc(Nc2ccc(N3CCN(C)CC3)nc2)ncc1C`: 4%.

Compound `CC1CCCCN1S(=O)(=O)c1ccc(NC(=O)c2cc(-c3ccccc3O)n[nH]2)cc1` (stereo not given) had an IFI of 7.46%. The same measure for `Cc1ccc(NC(=O)c2cccc(CN3CCCN(Cc4cccc(O)c4)CC3)c2)cc1C`: 6.29%; for `CCC(C)NC(=O)CN1CN(c2ccccc2)C2(CCN(C(=O)c3ccc4ccccc4c3)CC2)C1=O` (stereo not given): 1.67%; for `Clc1ccc(CNCCCCCCCNCc2ccc(Cl)c(Cl)c2)cc1Cl`: 15%. On to `Cc1nc(N)nc(N)c1OCc1cccc2ccccc12`, for which the IFI came out at 1.45%.

The compound `Cc1cccc2nc(-c3cccc(-c4ccc(NC(=O)Nc5cccc(C#N)c5)cc4)c3)[nH]c12` registered an IFI of 5%. With `O=C(C=Cc1ccc(F)cc1)N1CCN(S(=O)(=O)c2ccc(Cl)cc2)CC1`, the IFI is 0%. On to `CCC(C)CN1CCCN(c2ccc(NC(=O)c3cccs3)cc2)CC1` (stereo not given), for which the IFI came to 5.56%. The compound `CN(c1ncc(-c2cccc(CNCc3ccccc3O)c2)cn1)C1CCCCC1` gave an IFI of 10.5%. Turning to `CC1CCc2c(C(=O)N3CCc4ccccc4C3)csc2C1` (stereo not given), the IFI stood at 1.45%. The same measure for `Nc1ncc(-c2ccc(F)cc2)c2ccc(-c3cccc(F)c3)cc12`: 4.93%. The same measure for `C[C@@H](Nc1nc(NCc2ccccc2)c2sccc2n1)c1ccccc1`: 6.67%.

`O=S(=O)(Nc1ccc2nccc(N3CCNCC3)c2c1)c1ccc2c(Cl)cccc2c1` yielded an IFI of 3.88%. Compound `CC1(C)NC(N)=NC(=N)N1OCCc1ccccc1` came in with an IFI of 2.17%. `CCN(CC)CCN(Cc1ccc(-c2ccc(C(F)(F)F)cc2)cc1)C(=O)Cn1c(CCc2cccc(F)c2F)nc(=O)c2cccnc21` returned an IFI of 9.35%. In the case of `COc1ccc2c(c1)CCCC2NCCCCNC(=O)c1ccc(NC(=O)c2ccc(Cl)cc2)cc1` (stereo not given), the IFI was determined as 2.7%.

Take `COc1ccc(CCON2C(=N)N=C(N)NC2(C)C)cc1OC`: the IFI is 3.62%. Under `O=C(CCc1cccnc1)Nc1cccc(-c2ccc(-c3nc4cc(C(F)(F)F)ccc4[nH]3)cc2)c1` stands 6.96%; under `CCOc1cc(C(=O)NCCN(C(C)C)C(C)C)ccc1-c1nc2cc(Cl)ccc2[nH]1`, 1.41%. Under `O=C(NC1CCCCCC1)[C@@H]1CCCN1C(=O)c1ccc(O)c(-c2ccc(Cl)c(Cl)c2)c1` stands 2.96%; under `Cc1ccc(-c2cnc3[nH]cc(-c4ccc(C(=O)O)c(C)c4)c3c2)cc1C`, 7.55%; under `Oc1ccc2[nH]c(-c3cccc(F)c3)nc2c1CNCc1ccccc1`, 5.22%.

On to `Cc1cc2c(cc1C(F)(F)F)N(C(=O)Nc1cc(OCCN(C(C)C)C(C)C)cc(C(F)(F)F)c1)CC2`, for which the IFI turned out to be 6.02%.

Compound `COc1cc2nc(NC3CCN(Cc4ccccc4)CC3)nc(N)c2cc1OC` had an IFI of 3.79%.

The compound `CCN(CC)CC(O)c1cc(-c2ccc(C)cc2)nc2c(C)cc(C)cc12` (stereo not given) registered an IFI of 2.16%.

As to `O=c1cc(NCCCNC2CCOc3c(Cl)cccc32)[nH]c2ccccc12` (stereo not given), the IFI came out at 2.88%.

For the compound `O=C(Nc1cccc(OCCN2CCCC2)c1)Nc1ccc(Cl)c(Cl)c1`, the IFI was determined as 2.92%. The same measure for `CCc1nc2c(N)nc(N)nc2nc1-c1ccc(OC)cc1`: 1.47%; for `O=C(/C=C/c1c(Cl)cccc1Cl)NC1CCC(CN2CCC(c3c[nH]c4ccncc34)CC2)CC1` (stereo not given): 6.34%; for `CC1(C)CCC(=Cc2ccc(Cl)cc2)CC1(O)Cn1ccnc1` (stereo not given): 7.25%.
